Source: PubChem BioAssay AID1745847 (National Center for Advancing Translational Sciences (NCATS), 2022)
The whole screen tested about 2,100 compounds, of which about 670 (32%) were called active. Inconclusive results, whose numbers are uncertain, are shown with a selection of clear calls. Calls come from the whole dose curve; as a rule, active = well fitted inhibition curve with a large enough effect; inconclusive = small, poorly fitted or top-dose-only effect; inactive = no such curve, though single readings can be large or run the other way. A potency beside an inconclusive call is a rough fit, not a confirmed value.

Assay: CMV-Luciferase Counterscreen for Inhibitors of ATXN expression; note: nearly all actives have a fitted effect of over 55% in size
Settings: HEK-293 CMV-luciferase reporter, luminescence, 24 h; series mostly up to 57.5 µM; activity change, negative = inhibition: at the top concentration
% is set by controls: 0 for no effect and ±100 for the full control effect; potency is the fitted concentration of half-maximal effect; tags give direction and shape of the fitted curve.

| Compound | activity change, negative = inhibition | Potency |
| --- | --- | --- |
| CC(=O)c1cccc(-c2cnc3c(NC=O)cc(-c4ccccc4F)cn23)c1 | inactive: -18.2% [at 11.4 µM] | – |
| Cc1ccc(S(=O)(=O)N(C)C)cc1NC(=O)c1cncc(Br)c1 | – | inconclusive: 11.2 µM [inhibitor, partial curve] |
| COc1ccc2cc(C#N)c(N3CCN(C(=O)c4ccccc4C)CC3)nc2c1 | – | inconclusive: 3.55 µM [inhibitor, single point] |
| Cc1nc(-c2cccc(NC(=O)c3cccc(S(=O)(=O)N4CCCC4)c3)c2)cs1 | – | inconclusive: 20 µM [inhibitor, partial curve, poor fit] |
| COc1ccc(Nc2nc(N3CCCC3)c3ccccc3n2)cc1 | – | active: 10 µM |
| N=c1n(CCN2CCCCC2)c2ccccc2n1CC(O)c1ccc(Cl)c(Cl)c1 (stereo not given) | – | inconclusive: 28.2 µM [inhibitor, single point] |
| C=CCNc1oc(-c2ccc(Cl)cc2)nc1C#N | inactive: -10.5% | – |
| Oc1ccc(CN2CCC(Cc3ccccc3)CC2)c2cccnc12 | inactive: -19.8% [at 11.4 µM] | – |
| CN(C)CCCN(C(=O)c1ccc(S(=O)(=O)N(C)Cc2ccccc2)cc1)c1nc2cc3c(cc2s1)OCO3 | – | inconclusive: 31.6 µM [inhibitor, single point] |
| CCOc1ccc(OCC)c(NC(=O)Nc2ccc3c(c2)N(C)C(=O)CS3)c1 | – | active: 22.4 µM |
| CN(C)c1ccc(Cc2cc3c(O)ccc(O)c3cc(Cc3ccc(N(C)C)cc3)c2=O)cc1 | inactive: -9.62% [at 11.4 µM] | – |
| O=C(Nc1cccc(C(F)(F)F)c1)Oc1ccc(Cl)c2cccnc12 | – | inconclusive: 3.98 µM [inhibitor, single point] |
| Cc1ccc(S(=O)(=O)c2nc(NCc3ccc4c(c3)OCO4)sc2Cl)cc1 | – | inconclusive: 25.1 µM [inhibitor, single point] |
| Cc1ccc(N(C)S(=O)(=O)c2cccc(C(=O)OCC(=O)c3c(N)n(C)c(=O)n(C)c3=O)c2)cc1 | – | inconclusive: 20 µM [inhibitor, partial curve, poor fit] |
| COc1cc2nc(CN(C)Cc3ccc(SC)cc3)[nH]c(=O)c2cc1OC | inactive: 4.26% | – |
| O=C(CNC(=O)c1ccccc1Br)N/N=C/c1ccccc1O | – | inconclusive: 14.1 µM [inhibitor, partial curve] |
| O=c1c2c(-c3ccccc3)csc2nc2c3ccccc3c(NCCN3CCOCC3)nn12 | inactive: -12% [at 11.4 µM] | – |
| Cc1cc(SCC(=O)NN)c2cc(Br)ccc2n1 | inactive: 0.829% | – |
| O=C(C1CC(=O)N(c2ccc3c(c2)OCCO3)C1)N1CCN(c2ccccc2)CC1 (stereo not given) | inactive: -8.65% [at 11.4 µM] | – |
| O=C(NN=Cc1ccc(O)cc1O)c1ccccc1NS(=O)(=O)c1cccs1 | – | active: 3.16 µM |
| COc1ccc(N2CCN(c3cc(C)nc4ccc(OC)cc34)CC2)cc1 | – | inconclusive: 3.55 µM [inhibitor, partial curve, poor fit] |
| CC(O)CNCCNCc1c(OCc2ccccc2)ccc2ccccc12 (stereo not given) | – | inconclusive: 11.2 µM [inhibitor, partial curve] |

| Compound | activity change, negative = inhibition | Potency |
| --- | --- | --- |
| Cc1ccc(F)cc1-c1cc2nc(NCCCN(C)C)n(C)c(=O)c2s1 | – | inconclusive: 31.6 µM [inhibitor, partial curve, poor fit] |
| O=C(Nc1cccc(S(=O)(=O)N2CCOCC2)c1)c1ccc2c(=O)n3c(nc2c1)CCCCC3 | – | inconclusive: 3.16 µM [inhibitor, single point] |
| O=C(N/N=C\c1c(O)ccc2ccccc12)c1ccc(S(=O)(=O)N2CCCCC2)cc1 | – | active: 1.12 µM |
| COc1ccc(C(=O)NCC(=O)N/N=C/c2ccc([N+](=O)[O-])s2)cc1OC | – | active: 12.6 µM |
| Cc1ccc(OCC(=O)N/N=C/c2cccc3cccnc23)cc1 | – | active: 20 µM |
| CCN1CCN(CCCNC(=O)c2ccc(/C=C3/Sc4ccccc4N(Cc4ccccc4F)C3=O)cc2)CC1 | inactive: 12.2% | – |
| CC(=O)Nc1ccc(N(CC(O)Cn2c3ccccc3c3ccccc32)S(=O)(=O)c2ccc(C)cc2)cc1 (stereo not given) | – | active: 20 µM |
| c1ccc(CN=C(NCc2ccccc2)NCc2ccccc2)cc1 | – | inconclusive: 28.2 µM [inhibitor, single point] |
| O=C(CSc1nc2ncc(Br)cc2[nH]1)Nc1ccccc1-c1ccccc1 | – | inconclusive: 14.1 µM [inhibitor, partial curve, poor fit] |
| CS(=O)(=O)Nc1ccccc1C(=O)Nc1cc(Cl)cc(Cl)c1 | – | inconclusive: 0.891 µM [inhibitor, full curve] |
| O=C(Nc1cccc(Br)c1)Oc1cccc2cccnc12 | – | inconclusive: 31.6 µM [inhibitor, single point] |
| Cc1ccc2ccc(C(Nc3ccccn3)c3ccccc3)c(O)c2n1 (stereo not given) | – | inconclusive: 20 µM [inhibitor, partial curve, poor fit] |
| O=C(c1cc(COc2cccc(C(F)(F)F)c2)on1)N1CCC(c2ccncc2)CC1 | – | inconclusive: 1.41 µM [inhibitor, partial curve, poor fit] |
| O=C1CN(C(=O)c2c(F)cccc2F)C(c2ccc(F)cc2)c2cc(Br)ccc2N1 (stereo not given) | – | inconclusive: 3.16 µM [inhibitor, partial curve, poor fit] |
| Cc1nn2c(NCc3ccccn3)c3c(nc2c1-c1ccccc1)CCC3 | – | inconclusive: 7.94 µM [inhibitor, full curve, poor fit] |
| Cc1cc(C(=O)N/N=C/c2cc(Br)ccc2OC(=O)c2ccccc2)n[nH]1 | – | inconclusive: 2.51 µM [inhibitor, partial curve] |
| Clc1ccc2nc(-c3ccccn3)c(Nc3ccc4c(c3)OCO4)n2c1 | – | inconclusive: 15.8 µM [inhibitor, single point] |
| Cc1ncc(CO)c(/C=N/NC(=O)c2cccc(S(=O)(=O)N3CCCC3)c2)c1O | – | inconclusive: 17.8 µM [inhibitor, partial curve, poor fit] |
| C=CCn1c(C)c(/C=C/c2cc[n+](C)cc2)c2ccccc21 | – | inconclusive: 1.58 µM [inhibitor, partial curve, poor fit] |
| CCCC1CCC(c2ccc(C(=O)NN)cc2)CC1 (stereo not given) | – | inconclusive: 1.41 µM [inhibitor, full curve] |
| CCCCC(=O)NC(c1ccc(OC)c(OC)c1)c1ccc2cccnc2c1O (stereo not given) | – | active: 2.82 µM |
| Nc1ccn([C@@H]2O[C@H](CO)[C@@H](O)C2O)c(=O)n1 (stereo not given in full) | – | active: 2.51 µM |

| Compound | activity change, negative = inhibition | Potency |
| --- | --- | --- |
| Cc1cc(C)cc(C(=O)NC(=S)Nc2ccc(-c3cc4ccccc4oc3=O)cc2)c1 | – | inconclusive: 10 µM [inhibitor, partial curve] |
| Cc1ccccc1OCC(=O)N/N=C/c1cccc2cccnc12 | – | active: 15.8 µM |
| Oc1c(C(c2ccccn2)N2CCC(Cc3ccccc3)CC2)cc(Cl)c2cccnc12 (stereo not given) | – | inconclusive: 25.1 µM [inhibitor, single point] |
| Cc1ccc(CN2CCSc3ccc(C(=O)NC4CCN(Cc5ccccc5)CC4)cc32)cc1 | – | inconclusive: 3.55 µM [inhibitor, single point] |
| COc1ccc(NC(=O)c2oc3ccc(S(=O)(=O)N4CCC5(CC4)OCCO5)cc3c2C)cc1 | – | inconclusive: 3.55 µM [inhibitor, partial curve, poor fit] |
| CC1CCC(CN2C(Nc3ccccc3)=NC[C@@H]2Cc2ccccc2)CC1 (stereo not given in full) | – | inconclusive: 28.2 µM [inhibitor, single point] |
| COc1ccccc1-c1cc(NC=O)c2ncc(-c3ccc(F)cc3)n2c1 | – | inconclusive: 11.2 µM [inhibitor, partial curve, poor fit] |
| O=c1cc(-c2ccncc2)oc2c1ccc1ccccc12 | – | inconclusive: 15.8 µM [inhibitor, partial curve, poor fit] |
| NC1=NC[C@H](Cc2ccccc2)N1CCCCC1CCCCC1 | – | inconclusive: 3.55 µM [inhibitor, single point] |
| NNc1ncnc2scc(-c3ccc(Cl)cc3)c12 | – | active: 25.1 µM |
| Cc1ccc(NC(=O)C2CCN(S(=O)(=O)c3ccc(N4CCCC4=O)cc3)CC2)cc1Cl | – | inconclusive: 1.26 µM [inhibitor, partial curve, poor fit] |
| [O-][n+]1c2ccccc2cc2ccccc21 | – | inconclusive: 12.6 µM [inhibitor, single point] |
| N#C/C(=N\Nc1cccc([N+](=O)[O-])c1)C(=O)c1ccc(Br)cc1 | – | inconclusive: 0.891 µM [inhibitor, full curve, poor fit] |
| Cc1cccc(CN2C(=O)/C(=C\c3ccc(C(=O)NCCN4CCOCC4)cc3)Sc3ccccc32)c1 | – | inconclusive: 28.2 µM [inhibitor, single point] |
| COc1cccc(CNc2nc(NCc3ccccc3)nc3ccsc23)c1 | – | inconclusive: 11.2 µM [inhibitor, partial curve] |
| Cc1csc2c(N3CCN(C(=O)Nc4ccc(Cl)c(Cl)c4)CC3)ncnc12 | – | inconclusive: 3.55 µM [inhibitor, single point] |
| CC(=O)Oc1ccc(N(C(C)=O)S(=O)(=O)c2ccc(C)cc2)c2ccccc12 | – | inconclusive: 3.55 µM [inhibitor, partial curve, poor fit] |
| CN(Cc1ccccc1)C1=CC(=[N+]2CCCC2)CC(C)(C)C1 | – | active: 0.447 µM |
| CCCCOc1ccccc1NC(=O)Cn1c(-c2nonc2N)nc2ccccc21 | inactive: -2.18% | – |
| O=[N+]([O-])c1ccc(C[n+]2cccc3ccc4cccnc4c32)cc1 | – | active: 3.16 µM |
| O=C(Nc1cccc2ccccc12)OC1C=CS(=O)(=O)C1 (stereo not given) | – | inconclusive: 3.16 µM [inhibitor, partial curve, poor fit] |
